{"source": "PubChem BioAssay AID485294", "about": "(National Center for Advancing Translational Sciences (NCATS), 2010)", "note": "Hit rate of the full screen: of about 370,000 compounds, about 150 (0.041%) were called active. This list was built around the results that the source calls inconclusive (neither active nor inactive); the mix of calls is not that of the screen. The call rests on the fitted dose curve; in most records, active means well fitted inhibition curve with a large enough effect; inconclusive means small, poorly fitted or top-dose-only effect; inactive means flat fitted curve, though single readings scatter. Potencies of inconclusive entries are left out as doubtful fits. Potency means the concentration at half of the fitted maximal effect; tags describe the fitted curve by direction and shape.", "data": [{"molecular_target": "Beta-lactamase (Escherichia coli (strain K12)) (UniProt P00811)", "sequence (P00811 whole entry, looked up)": "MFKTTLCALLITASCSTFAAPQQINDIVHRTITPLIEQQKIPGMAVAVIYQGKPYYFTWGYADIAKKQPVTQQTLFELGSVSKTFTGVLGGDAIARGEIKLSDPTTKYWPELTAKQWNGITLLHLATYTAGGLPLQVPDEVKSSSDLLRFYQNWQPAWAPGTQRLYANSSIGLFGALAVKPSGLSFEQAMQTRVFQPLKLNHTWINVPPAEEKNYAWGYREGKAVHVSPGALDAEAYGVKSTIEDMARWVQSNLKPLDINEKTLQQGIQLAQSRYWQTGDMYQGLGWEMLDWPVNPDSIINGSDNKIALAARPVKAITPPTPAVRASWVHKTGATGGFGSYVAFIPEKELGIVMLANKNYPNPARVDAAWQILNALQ", "assay": "qHTS Inhibitors of AmpC Beta-Lactamase (assay with detergent); further: nearly all actives have a fitted effect of over 25% in size;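 on activity change, negative = inhibition: 0% = no-compound wells and -100% = no-enzyme wells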", "conditions": "AmpC hydrolysis of nitrocefin, absorbance 480 nm, 0.01% Triton; activity change, negative = inhibition: at 114 µM (top of the series)", "summary_of_the_method": "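AmpC (5.3 nM in the dispensed reagent) in 20 mM phosphate pH 7.0 with 0.01% (detergent screen) or 0.0001% Triton X-100 was preincubated with compounds for 15 min at room temperature. Nitrocefin was then added from an 800 uM solution, and hydrolysis was followed at 480 nm.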", "values": [{"smiles": "Cc1cc(Br)c(NC(=O)CN(C)CCOc2ccccc2)c(Br)c1", "activity change, negative = inhibition": "inactive: -4.18%"}, {"smiles": "O=S(=O)(c1ccc(F)cc1)N1CCN(Cc2nnc(-c3ccccc3)o2)CC1", "Potency": "inconclusive [inhibitor, full curve, poor fit]"}, {"smiles": "CC(C)CNS(=O)(=O)c1cc(C(=O)OC2CCOC2=O)c(Cl)cc1Cl", "note": "(stereo not given)", "activity change, negative = inhibition": "inactive: -3.67%"}, {"smiles": "COc1cc2cc(C)c3nnc(SCC(N)=O)n3c2cc1OC", "Potency": "inconclusive [inhibitor, partial curve, poor fit]"}, {"smiles": "Nc1cc(C(=O)OCC(=O)N2CCC(Cc3ccccc3)CC2)ccc1Cl", "activity change, negative = inhibition": "inactive: 1.62%"}, {"smiles": "Cc1nc2ccc(NC(=O)c3cccc(S(=O)(=O)N(C)c4ccccc4)c3)cc2s1", "activity change, negative = inhibition": "inactive: -5.54%"}, {"smiles": "Cc1nc2ccccc2n1/C(=N/S(=O)(=O)c1ccc(Br)cc1)c1ccccc1", "Potency": "inconclusive [inhibitor, partial curve, poor fit]"}, {"smiles": "N=c1c(S(=O)(=O)c2ccccc2)cc2c(=O)n3ccccc3nc2n1Cc1ccco1", "Potency": "inconclusive [inhibitor, partial curve, poor fit]"}, {"smiles": "CCc1ccc(CN(Cc2cn[nH]c2-c2ccc(OC)cc2)C(=O)Nc2ccc(C)c(F)c2)cc1", "activity change, negative = inhibition": "inactive: 19.1%"}, {"smiles": "COc1ccccc1NCc1nnc(-c2ccccc2)o1", "Potency": "inconclusive [inhibitor, full curve, poor fit]"}, {"smiles": "O=C1OCCN1C(=O)[C@H]1[C@H](c2ccc(F)cc2)C(c2ccc(F)cc2)=NN1c1ccccc1", "Potency": "inconclusive [inhibitor, full curve]"}, {"smiles": "CCc1ccc(NC(=O)CCc2ccc(C)o2)cc1", "activity change, negative = inhibition": "inactive: -0.445%"}, {"smiles": "O=[N+]([O-])c1ccc(/C=N/Nc2ccnc3cc(Cl)ccc23)o1", "activity change, negative = inhibition": "inactive: 3.54%"}, {"smiles": "COC(=O)CSc1nnc(C)c(=O)[nH]1", "activity change, negative = inhibition": "inactive: 1.19%"}, {"smiles": "CC(C)N(C(=O)CN1C(=O)NC(c2ccccc2)(c2ccccc2)C1=O)C(C)C", "Potency": "inconclusive [inhibitor, full curve]"}, {"smiles": "CCN(CC)C(=O)c1ccc(-c2ccccc2)cc1", "Potency": "inconclusive [inhibitor, full curve]"}, {"smiles": "O=C(OCC(=O)c1ccco1)c1ccc2ncsc2c1", "Potency": "inconclusive [inhibitor, partial curve, poor fit]"}, {"smiles": "CCC(C(=O)OCC(=O)Nc1cccc(C(C)=O)c1)c1ccccc1", "note": "(stereo not given)", "Potency": "inconclusive [inhibitor, single point]"}, {"smiles": "CCOc1ccc(CC(=O)C2C(=O)CC(C)(C)CC2=O)cc1OCC", "Potency": "inconclusive [inhibitor, single point]"}, {"smiles": "Cc1cccc(N2CCN(C(=O)c3ccc(CS(=O)Cc4ccc(Cl)cc4)o3)CC2)c1C", "note": "(stereo not given)", "Potency": "inconclusive [inhibitor, single point]"}, {"smiles": "CCn1cc(C(=O)Nc2ccccc2C(=O)OC)c(=O)c2ccc(C)nc21", "activity change, negative = inhibition": "inactive: -19.7%"}, {"smiles": "Cc1cc(NC(=O)/C=C/c2cccc(F)c2)n(-c2nc3ccccc3[nH]2)n1", "Potency": "inconclusive [inhibitor, partial curve]"}, {"smiles": "O=C(COc1ccccc1Cl)NCCNC(=O)c1ccco1", "Potency": "inconclusive [inhibitor, full curve, poor fit]"}, {"smiles": "O=C(NN1CCCCC1)c1ccc(COc2ccc(Cl)cc2)cc1", "Potency": "inconclusive [inhibitor, full curve, poor fit]"}, {"smiles": "c1ccc(NC2=Nc3ccccc3CC2)cc1", "Potency": "inconclusive [inhibitor, full curve, poor fit]"}, {"smiles": "CC(CC(=O)NNC(=O)c1cccc(Cl)c1)c1ccccc1", "note": "(stereo not given)", "activity change, negative = inhibition": "inactive: -5.13%"}, {"smiles": "CCOC(=O)C1=C(C)N=c2s/c(=C/c3cccc([N+](=O)[O-])c3O)c(=O)n2C1c1ccc(OC)cc1OC", "note": "(stereo not given)", "activity change, negative = inhibition": "inactive: -7.47%"}, {"smiles": "COc1cc(C2c3sc(=O)[nH]c3SC3C(=O)N(c4ccc(C)cc4)C(=O)C32)ccc1O", "note": "(stereo not given)", "activity change, negative = inhibition": "inactive: 4.01%"}, {"smiles": "COc1ccc(OC)c(-c2cc(C3CCN(C(=O)OC(C)(C)C)CC3)[nH]n2)c1", "activity change, negative = inhibition": "inactive: 7.9%"}, {"smiles": "CCCC(=O)NC(Oc1ccc(C(C)=O)cc1)C(Cl)(Cl)Cl", "note": "(stereo not given)", "activity change, negative = inhibition": "inactive: 0%"}, {"smiles": "Cc1ccc(OCCOC(=O)c2cc(S(=O)(=O)N3CCCCC3)ccc2N2CCOCC2)cc1", "Potency": "inconclusive [inhibitor, partial curve, poor fit]"}, {"smiles": "O=C(Nc1ccccc1NC(=O)c1ccco1)c1ccco1", "activity change, negative = inhibition": "inactive: 4.45%"}, {"smiles": "Cc1ccc(O)c(C(=O)c2cnc3onc(-c4ccc(F)cc4)c3c2)c1", "Potency": "inconclusive [inhibitor, single point]"}, {"smiles": "CCCCN(C(=O)CSCC(=O)Nc1ccc(C)cc1)c1c(N)n(Cc2ccccc2)c(=O)[nH]c1=O", "Potency": "inconclusive [inhibitor, full curve, poor fit]"}, {"smiles": "CCC(=O)N1CCN(c2nc(-c3ccc(Cl)cc3)cs2)CC1", "activity change, negative = inhibition": "inactive: -6.06%"}, {"smiles": "COc1ccc(C(=O)c2cn(Cc3ccc(F)cc3)c3ccc(C)cc3c2=O)cc1", "activity change, negative = inhibition": "inactive: 6.58%"}, {"smiles": "COc1cccc(C(=O)/C=C/Nc2cc(C)ccc2O)c1", "Potency": "inconclusive [inhibitor, single point]"}, {"smiles": "COc1cc(/C=N/Nc2snc(SC)c2C#N)cc(OC)c1OC", "activity change, negative = inhibition": "inactive: 1.34%"}, {"smiles": "O=C(C1CCCN(S(=O)(=O)Cc2ccccc2)C1)N1CCc2ccccc21", "note": "(stereo not given)", "Potency": "inconclusive [inhibitor, single point]"}, {"smiles": "COCCN1C(=O)c2oc3ccccc3c(=O)c2C1c1ccc(OC)c(OC)c1", "note": "(stereo not given)", "Potency": "inconclusive [inhibitor, partial curve, poor fit]"}, {"smiles": "Cc1cccc(CCNC(=O)c2cc(S(=O)(=O)N3CCCC3)cn2C)c1", "activity change, negative = inhibition": "inactive: -8.94%"}, {"smiles": "Cc1ccc(-c2c3c(=O)n(C)c(=O)n(C)c3cn2-c2ccccc2O)cc1", "Potency": "inconclusive [inhibitor, full curve, poor fit]"}, {"smiles": "CN(C)S(=O)(=O)c1ccc(NC(=O)c2ccncc2)cc1", "Potency": "inconclusive [inhibitor, single point]"}, {"smiles": "C=CCn1c(=N)c(C(=O)NCCCOC)cc2c(=O)n3cccc(C)c3nc21", "activity change, negative = inhibition": "inactive: 9.33%"}, {"smiles": "CC(=O)c1cc2c(cc1NC(=O)CCc1c(C)nc3ncnn3c1C)OCO2", "Potency": "inconclusive [inhibitor, full curve, poor fit]"}, {"smiles": "Cc1cc(OCC(=O)c2ccc(F)cc2)ccc1N1C(=O)CCC1=O", "Potency": "inconclusive [inhibitor, single point]"}, {"smiles": "CCN(CC)C(=O)Sc1cccc2cccnc12", "Potency": "inconclusive [inhibitor, full curve, poor fit]"}, {"smiles": "O=C(NC1CCCCC1)c1cc(-c2cccc(Cl)c2)on1", "activity change, negative = inhibition": "inactive: -17%"}, {"smiles": "O=C(c1ccoc1)N1CCC2(CCCN(Cc3ccc(F)c(F)c3)C2)C1", "note": "(stereo not given)", "activity change, negative = inhibition": "inactive: 6.48%"}, {"smiles": "Nc1nonc1-n1nnc(C(=O)N/N=C/c2ccc(OCc3ccccc3F)cc2)c1CNc1ccccc1", "Potency": "inconclusive [inhibitor, full curve, poor fit]"}, {"smiles": "COc1ccc(C)cc1N(C(=O)c1ccccc1F)c1nc2ccccc2s1", "Potency": "inconclusive [inhibitor, single point]"}, {"smiles": "O=C(NCc1ccco1)c1cc(S(=O)(=O)N2CCOCC2)ccc1Cl", "Potency": "inconclusive [inhibitor, full curve, poor fit]"}, {"smiles": "CCOC(=O)C(CC)Sc1nnc2c3cc(C)ccc3n(C)c2n1", "note": "(stereo not given)", "Potency": "inconclusive [inhibitor, partial curve]"}, {"smiles": "Cc1ccc(NC(=O)C(OC(=O)c2cnc(C)cn2)c2ccccc2)c([N+](=O)[O-])c1", "note": "(stereo not given)", "activity change, negative = inhibition": "inactive: 3.12%"}, {"smiles": "O=C(O)COc1ccccc1-c1nc(-c2ccccc2)c(-c2ccccc2)[nH]1", "activity change, negative = inhibition": "inactive: -3.15%"}, {"smiles": "Cc1ccc(CN2C(=O)C(O)(c3c[nH]c4ccccc34)c3cc(Cl)ccc32)cc1", "note": "(stereo not given)", "activity change, negative = inhibition": "inactive: 5.11%"}, {"smiles": "C=CCn1c(CCC(=O)O)ccc1-c1ccccc1", "Potency": "inconclusive [inhibitor, full curve, poor fit]"}, {"smiles": "O=C(COc1ccc(Cl)cc1)Nc1cccc(S(=O)(=O)NCc2ccco2)c1", "activity change, negative = inhibition": "inactive: -1.3%"}, {"smiles": "CC(NC(=O)C12CC3CC(C1)CC(n1cncn1)(C3)C2)C12CC3CC(CC(C3)C1)C2", "note": "(stereo not given)", "activity change, negative = inhibition": "inactive: -1.06%"}, {"smiles": "COc1ccccc1OCc1nnc(SCC(=O)N2CCCCC2)n1-c1ccccc1", "Potency": "inconclusive [inhibitor, partial curve, poor fit]"}, {"smiles": "CCCc1nc([N+](=O)[O-])c(S(=O)(=O)c2ccccc2)n1CC(C)C", "activity change, negative = inhibition": "inactive: 2.43%"}, {"smiles": "O=C1CCN(Cc2ccc(O)cc2)CCN1[C@H](CO)c1ccccc1", "Potency": "inconclusive [inhibitor, full curve, poor fit]"}, {"smiles": "CCSc1nnc(-c2ccncc2)o1", "Potency": "inconclusive [inhibitor, full curve, poor fit]"}, {"smiles": "CC(C)(C)c1ccc(-c2nc(C#N)c(NCc3cccnc3)o2)cc1", "Potency": "inconclusive [inhibitor, full curve, poor fit]"}, {"smiles": "O=C(O)C1CCCCC1C(=O)Nc1ccccc1Nc1ccccc1", "note": "(stereo not given)", "Potency": "inconclusive [inhibitor, full curve, poor fit]"}, {"smiles": "Cn1c(CCNC(=O)c2ccco2)nc2ccccc21", "Potency": "inconclusive [inhibitor, partial curve, poor fit]"}, {"smiles": "COc1ccc(NC(=O)CC2CCCC2)cc1S(=O)(=O)N1CCCCC1", "Potency": "inconclusive [inhibitor, partial curve]"}, {"smiles": "NNC(=O)CN1C(c2ccccc2)=Nc2ccc(Br)cc2C1c1ccccc1", "note": "(stereo not given)", "Potency": "inconclusive [inhibitor, full curve]"}, {"smiles": "COc1ccc(C2=NO[C@@H]3C(=O)N(c4c(C)cccc4C)C(=O)[C@H]23)cc1OC", "Potency": "inconclusive [inhibitor, full curve, poor fit]"}, {"smiles": "O=C(CCNC(=O)c1ccc(Cl)cc1)NCCCN1CCOCC1", "Potency": "inconclusive [inhibitor, full curve, poor fit]"}]}]}
